Laboratory results reported in the supplement of paper PMC11125491.
± gives the standard deviation of the averaged measurements. Growth of baker's yeast expressing single-residue variants of Pneumocystis jirovecii dihydrofolate reductase in 8.8 or 44 µM methotrexate (about 75% and 90% inhibition of the wild type). Selection coefficient per generation; 0 = like wild type, above 0 = less sensitive, below 0 = more sensitive or loss of function. No active / inactive call per row; the paper calls resistant above 0.220 (8.8 µM) or 0.243 (44 µM) together with a significance test. At 44 µM about 15% of codons end with one read or none, so the lowest values are floors (replicate rank correlation 0.74; 0.94 at 8.8 µM).

B1: UniProt A0EPZ9; numbered along this chain (parent)
chain: MDWQKSLTLIVALTLSRGIGLKNDLPWKLKSDMMFFSRVTSGLLVTRSTGQMNVVLMGRKTWESLPAHSRPLKNRINVVISRQEVLDLGGGAYHARSLDDALALLSQIYDSTSKIQLNRVFVIGGGELCKAAMEHSRLNRIIATVIHNEVDCDVFFPIDFRSSQSCLPWRKQDHSVLEAWVGSKVPQGKINENGFIYEFEMWIRDI

Variants of: B1
Assay: selection coefficient against synonymous wild-type codons (log2 per generation); higher = faster growth than wild type
Conditions: with Saccharomyces cerevisiae carrying the variant on a plasmid
Protocol: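 Pooled growth of yeast carrying single-residue variants of P. jirovecii dihydrofolate reductase (own DFR1 gene intact), two passages at 30 °C, three cultures, sequenced before and after. Codons with under 15 starting reads are left out; codons of one change are averaged.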

Variant | selection coefficient against synonymous wild-type codons (log2) (methotrexate 8.8 µM) | selection coefficient against synonymous wild-type codons (log2) (methotrexate 44 µM)
MDWQKSLTLIVALTLSRGIGLKNDLPWKLKSDMMFFSRVTSGLLVTRSTGQMNVVLMGRKTWESLPAHSRPLKNRINVVISRQEVLDLGGGAYHARSLDDALALLSQIYDSCSKIQLNRVFVIGGGELCKAAMEHSRLNRIIATVIHNEVDCDVFFPIDFRSSQSCLPWRKQDHSVLEAWVGSKVPQGKINENGFIYEFEMWIRDI [T112C] | -0.104 ± 0.094 | -0.13 ± 0.082
MDWQKSLTLIVALTLSRGIGLKNDLPWKLKSDMMFFSRVTSGLLVTRSTGQMNVVLMGRKTWESLPAHSRPLKNRINVVISRQEVLDLGGGAYHARSLDDALALLSQIYDSLSKIQLNRVFVIGGGELCKAAMEHSRLNRIIATVIHNEVDCDVFFPIDFRSSQSCLPWRKQDHSVLEAWVGSKVPQGKINENGFIYEFEMWIRDI [T112L] | -0.3 ± 0.093 | -0.141 ± 0.17
MDWQKSLTLIVALTLSRGIGLKNDLPWKLKSDMMFFSRVTSGLLVTRSTGQMNVVLMGRKTWESLPAHSRPLKNRINVVISRQEVLDLGGGAYHARSLDDALALLSQIYDSGSKIQLNRVFVIGGGELCKAAMEHSRLNRIIATVIHNEVDCDVFFPIDFRSSQSCLPWRKQDHSVLEAWVGSKVPQGKINENGFIYEFEMWIRDI [T112G] | 0.0231 ± 0.018 | 0.0644 ± 0.06
MDWQKSLTLIVALTLSRGIGLKNDLPWKLKSDMMFFSRVTSGLLVTRSTGQMNVVLMGRKTWESLPAHSRPLKNRINVVISRQEVLDLGGGAYHARSLDDALALLSQIYDSDSKIQLNRVFVIGGGELCKAAMEHSRLNRIIATVIHNEVDCDVFFPIDFRSSQSCLPWRKQDHSVLEAWVGSKVPQGKINENGFIYEFEMWIRDI [T112D] | 0.132 ± 0.023 | 0.146 ± 0.099
MDWQKSLTLIVALTLSRGIGLKNDLPWKLKSDMMFFSRVTSGLLVTRSTGQMNVVLMGRKTWESLPAHSRPLKNRINVVISRQEVLDLGGGAYHARSLDDALALLSQIYDSKSKIQLNRVFVIGGGELCKAAMEHSRLNRIIATVIHNEVDCDVFFPIDFRSSQSCLPWRKQDHSVLEAWVGSKVPQGKINENGFIYEFEMWIRDI [T112K] | 0.0341 ± 0.047 | 0.04 ± 0.13
MDWQKSLTLIVALTLSRGIGLKNDLPWKLKSDMMFFSRVTSGLLVTRSTGQMNVVLMGRKTWESLPAHSRPLKNRINVVISRQEVLDLGGGAYHARSLDDALALLSQIYDSISKIQLNRVFVIGGGELCKAAMEHSRLNRIIATVIHNEVDCDVFFPIDFRSSQSCLPWRKQDHSVLEAWVGSKVPQGKINENGFIYEFEMWIRDI [T112I] | -0.431 ± 0.27 | -0.0952 ± 0.085
MDWQKSLTLIVALTLSRGIGLKNDLPWKLKSDMMFFSRVTSGLLVTRSTGQMNVVLMGRKTWESLPAHSRPLKNRINVVISRQEVLDLGGGAYHARSLDDALALLSQIYDSMSKIQLNRVFVIGGGELCKAAMEHSRLNRIIATVIHNEVDCDVFFPIDFRSSQSCLPWRKQDHSVLEAWVGSKVPQGKINENGFIYEFEMWIRDI [T112M] | -0.222 ± 0.049 | -0.109 ± 0.067
MDWQKSLTLIVALTLSRGIGLKNDLPWKLKSDMMFFSRVTSGLLVTRSTGQMNVVLMGRKTWESLPAHSRPLKNRINVVISRQEVLDLGGGAYHARSLDDALALLSQIYDSESKIQLNRVFVIGGGELCKAAMEHSRLNRIIATVIHNEVDCDVFFPIDFRSSQSCLPWRKQDHSVLEAWVGSKVPQGKINENGFIYEFEMWIRDI [T112E] | 0.0776 ± 0.023 | 0.0883 ± 0.047
